Laboratory results as given in PubChem BioAssay (NCATS).
This list was built around the results that the source calls inconclusive (neither active nor inactive); the mix of calls is not that of the screen. For some of these results: Potencies beside an inconclusive call are fits to weak or partial responses and may not hold up. Activity calls are given as the source filed them. The call rests on the fitted dose curve; in most records, active means well fitted curve in the direction sought with a large enough effect; inconclusive means small, poorly fitted or top-dose-only effect, or another doubt; inactive means no such curve, though single readings can be large; an effect the other way counts as inactive or inconclusive.

Legend:
[1] = HPAF-II Cancer Cell Toxicity qHTS against the NCATS CANVASS Library (AID 1347346); further: potency means the concentration at half of the fitted maximal effect; nearly all actives have a fitted effect of over 55% in size
Outline: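 Luminescence from CellTiter-Glo, added after 72 h compound exposure and a 15 min room-temperature incubation, served as the viability readout. HPAF-II cells (1000/well) received an 11-point concentration series.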

[2] = UWB1.289 Cancer Cell Toxicity qHTS against the NCATS CANVASS Library (AID 1347347); further: potency means the concentration at half of the fitted maximal effect; nearly all actives have a fitted effect of over 60% in size
Outline: (§1)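 Per well, 1000 cells; exposure 72 h with compound at 11 final concentrations; readout CellTiter-Glo luminescence.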

[3] = OV-SAHO Cancer Cell Toxicity qHTS against the NCATS CANVASS Library (AID 1347348); conditions: OV-SAHO viability, CellTiter-Glo luminescence, 72 h; activity change, negative = cytotoxicity: at 38.3 µM (top of the series); further: nearly all actives have a fitted effect of over 55% in size; further: potency means the concentration at half of the fitted maximal effect; on activity change, negative = cytotoxicity: on the % scale 0 is the no-effect control and ±100 the full control effect
Outline: as §1

[4] = Panc-1005 Cancer Cell Toxicity qHTS against the NCATS CANVASS Library (AID 1347349); further: potency means the concentration at half of the fitted maximal effect; nearly all actives have a fitted effect of over 60% in size
Outline: as §1

[5] = A2780 Cisplatin Sensitive Ovarian Cancer Cell Toxicity qHTS against the NCATS CANVASS Library (AID 1347353); further: potency means the concentration at half of the fitted maximal effect; nearly all actives have a fitted effect of over 60% in size
Outline: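 Luminescent ATP content (ATPLite, 10 min at room temperature) served as the read-out after cells had been exposed to compounds for 72 hours at 37 °C. Dosing followed an 11-point concentration series.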

[6] = KB-8-5-11 Cancer Cell Toxicity qHTS against the NCATS CANVASS Library (AID 1347364); conditions: activity change, negative = toxicity: at 46.1 µM (top of the series); further: potency means the concentration at half of the fitted maximal effect; nearly all actives have a fitted effect of over 75% in size
Outline: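 Plate 500 KB-8-5-11 cells per well in DMEM + 10% FBS, add compounds by pin transfer, incubate 72 hr at 37C. Add CellTiter-Glo, wait 10 minutes at room temperature, read luminescence.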

[7] = SDT Cancer Cell Toxicity qHTS against the NCATS CANVASS Library (AID 1347365); further: potency means the concentration at half of the fitted maximal effect; nearly all actives have a fitted effect of over 60% in size
Outline: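 qHTS, SDT dog glioma line, 500 cells/well; cpds 11 pts; 72 hr, 37C, 5% CO2; CellTiterGlo ATP luminescence.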

[8] = KB-3-1 Cancer Cell Toxicity qHTS against the NCATS CANVASS Library (AID 1347366); further: potency means the concentration at half of the fitted maximal effect; nearly all actives have a fitted effect of over 75% in size
Outline: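 Cytotoxicity toward KB-3-1 cells (500/well, DMEM + 10% FBS) was scored by CellTiter-Glo luminescence following 72 hr exposure at 37C, with bortezomib titrated as control.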

[9] = qHTS for ATAD5 Agonist screened against the NCATS CANVASS Library (AID 1347367);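 further: luciferase reporter driven by ATAD5 which rises upon DNA damage; 0% is about no effect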
Outline: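 Genotoxicity was scored as increased ATAD5-luciferase luminescence in HEK293T after 16hr of exposure, with cell viability measured by fluorescence beforehand in the same well.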

[10] = biological target: Nuclear receptor subfamily 1 group I member 3 (Homo sapiens) (UniProt Q14994); experiment: qHTS for Constitutive Androstane Receptor (CAR) Antagonist screened against the NCATS CANVASS Library (AID 1347372); further: potency means the concentration at half of the fitted maximal effect
Chain of UniProt Q14994 (Q14994 whole entry, looked up): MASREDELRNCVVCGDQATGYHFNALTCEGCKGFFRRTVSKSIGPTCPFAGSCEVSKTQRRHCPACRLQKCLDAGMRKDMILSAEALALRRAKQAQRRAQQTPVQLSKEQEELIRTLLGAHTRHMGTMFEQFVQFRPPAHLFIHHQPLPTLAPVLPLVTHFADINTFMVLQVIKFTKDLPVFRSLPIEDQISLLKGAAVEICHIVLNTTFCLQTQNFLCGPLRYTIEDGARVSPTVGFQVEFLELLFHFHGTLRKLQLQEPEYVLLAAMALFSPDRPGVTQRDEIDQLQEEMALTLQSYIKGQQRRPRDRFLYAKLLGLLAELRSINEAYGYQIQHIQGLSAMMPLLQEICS
Outline: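 HepG2 cells stably carrying hCAR and a CYP2B6-2.2kb luciferase reporter were exposed to compounds plus 50 nM CITCO for 24hr at 37C. CAR activity was read by ONE-Glo luminescence, with viability measured first by CellTiter-Fluor.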

[11] = qHTS for Hypoxia signaling pathway (HIF-1) antagonists against the NCATS CANVASS Library (AID 1347374)
Outline: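 HRE-bla ME-180 cells in medium with 0.5% dialyzed FBS received compounds (11-point series) plus CoCl2 (60 uM addition stock) for 17 hrs at 37C. Beta-lactamase activity read with CCF4 (405 nm ex, 460/530 nm em); CellTiter-Glo viability measured in same wells.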

[12] = DH5-alpha competent E. coli microbial cell viability qHTS against the NCATS CANVASS Library (AID 1347377); conditions: viability signal change, negative = cytotoxic: at 46.1 µM (top of the series); further: potency means the concentration at half of the fitted maximal effect
Outline: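 qHTS, 11-pt; E. coli DH5-alpha, 0.2 OD; o/n 37C/5% CO2; BacTiter-Glo, 20 min RT; luminescence.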

[13] = qHTS for Antimalaria activity screened against the NCATS CANVASS Library (AID 1347380); further: potency means the concentration at half of the fitted maximal effect; nearly all actives have a fitted effect of over 40% in size
Outline: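 Dd2 strain, infected erythrocytes 2.5% Hct final / 0.3% parasitemia. 11-pt qHTS titration, 72 h, 37C, 5% O2, 5% CO2. Lysis buffer + SYBR Green, 18 h, fluorescence 485/535 nm.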

[14] = qHTS assay for small molecule disruptors of mitochondrial membrane potential screened against the NCATS CANVASS Library (AID 1347389)
Outline: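 HepG2, 2,000 cells/well, attached overnight; compound 1 hr, 37C, 5% CO2; Mito-MPS dye 30 min, 37C; fluorescence 535 nm (monomer) and 590 nm (aggregate); decreased 590/535 ratio = depolarization.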

[15] = Secretion counterscreen for inhibitors of the SERCaMP assay screened against the NCATS CANVASS Library (AID 1347390); conditions: SH-SY5Y constitutive GLuc secretion, luminescence, 20 h; activity change, negative = inhibition: at 76.6 µM (top of the series);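 further: light from luciferase secreted into medium read as a measure of general secretion; potency means the concentration at half of the fitted maximal effect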
Outline: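 Natural products are titrated in an 11-point series up to 77 uM onto SH-SY5Y-GLuc STOP cells for 20 h. Secreted reporter activity is measured as coelenterazine-driven luminescence, with Brefeldin A on each plate.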

[16] = qHTS for activators of Nrf2/ARE signaling pathway screened against the NCATS CANVASS Library (AID 1347391)
Outline: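 Plate ARE-bla HepG2 cells at 2000/well and let them settle 5 h. Pin-transfer compounds in DMSO, incubate 16 h at 37C. Load CCF4 for 2 h at room temperature and read blue/green fluorescence.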

[17] = Vero-766 cells viability qHTS against the NCATS CANVASS Library: Counterscreen for Zika virus inhibition assay (AID 1347394); conditions: Vero 766 viability, CellTiter-Glo luminescence, 72 h; activity change, negative = cytotoxic: at 46.1 µM (top of the series)
Outline: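 Counterscreen for toxicity: Vero 766 cells exposed 72 h to an 11-point compound series, viability by CellTiter-Glo.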

[18] = qHTS for inhibitors of Wild type Zika virus screened against the NCATS CANVASS Library (AID 1347396); further: potency means the concentration at half of the fitted maximal effect
Outline: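 Protection against wild-type Zika cytopathic effect is measured in African green monkey Vero 766 cells exposed to an 11-point compound series. Surviving cells are quantified by CellTiter Glo luminescence after 72 h.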

[19] = Viability qHTS for inhibitors of the SERCaMP assay screened against the NCATS CANVASS Library (AID 1347400); further: potency means the concentration at half of the fitted maximal effect; nearly all actives have a fitted effect of over 70% in size
Outline: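 SH-SY5Y SERCaMP MJH297 cells, 1000/well; 4 h settle, 37C/5% CO2; pin-transferred cpds; 48 h; CellTiter-Glo lum. Pos ctrl bortezomib 0.0001 - 4.6 uM.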

[20] = OV-KATE Cancer Cell Toxicity qHTS against the NCATS CANVASS Library (AID 1347345); further: potency means the concentration at half of the fitted maximal effect
Outline: as §1

[21] = U-118MG Cancer Cell Toxicity qHTS against the NCATS CANVASS Library (AID 1347351); further: potency means the concentration at half of the fitted maximal effect
Outline: as §1

[22] = UWB1.289-WTBRCA1 Cancer Cell Toxicity qHTS against the NCATS CANVASS Library (AID 1347354); further: potency means the concentration at half of the fitted maximal effect
Outline: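 Luminescent ATP read-out (CellTiter-Glo, 15min at room temperature) measures survival after cells face an 11-point compound series for 72 hours at 37 degrees C/5% CO2.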

[23] = qHTS for ATAD5 Antagonist screened against the NCATS CANVASS Library (AID 1347370); further: potency means the concentration at half of the fitted maximal effect; nearly all actives have a fitted effect of over 65% in size
Outline: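 HEK293T cells with stably integrated ATAD5-luciferase reporter, 2000/well, 5 h attachment; compounds plus 10 µM 5-fluorouridine, 16 h at 37 °C. Luciferase luminescence read, with CellTiter-Fluor viability read first.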

[24] = J3T Cancer Cell Toxicity qHTS against the NCATS CANVASS Library (AID 1347371); further: potency means the concentration at half of the fitted maximal effect
Outline: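 Cells plated at 500 per well, compounds pin-transferred, plates incubated 72 hr at 37C, then CellTiterGlo added and luminescence read to measure ATP content.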

[25] = qHTS for Inflammasome Signaling Inhibitors: IL-1-beta AlphaLISA screen against the NCATS CANVASS Library (AID 1347379)
Outline: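 THP-1 cells pretreated 1 hr with compound (up to 57.5 uM final), then stimulated with LPS (250 ng/mL final) and ATP (1.25 mM final). Secreted IL-1B measured by AlphaLISA after 16 hr; glyburide as positive control.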

[26] = qHTS for Activators of p53 Stress Response Pathway screened against the NCATS CANVASS Library (AID 1347388); further: potency means the concentration at half of the fitted maximal effect
Outline: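 p53RE-bla HCT-116 cells (4000/well) were plated 5 h at 37C, exposed to compounds for 16 h at 37C over an 11-point concentration series, then loaded with CCF4 for 2 h at room temperature; 460/530 nm emission ratio read.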
Tags describe the fitted curve by direction and shape.

C[C@]12CC[C@]3(C1)[C@H](CC2=O)C[C@@H](OC(=O)c1ccccc1)[C@H]1[C@](C)(C(=O)O)CCC[C@@]13C
active: Potency [5] 16.6 µM | Potency [8] 18.7 µM | Potency [13] 0.0133 µM | Potency [16] 3.71 µM | Potency [17] 6.6 µM
inconclusive: Potency [1] 2.66 µM [cytotoxic, full curve] | Potency [2] 6.66 µM [cytotoxic, partial curve] | activity change, negative = cytotoxicity [3] -33.1% [cytotoxic] | Potency [4] 10.6 µM [cytotoxic, partial curve, poor fit] | Potency [6] 16.6 µM [cytotoxic, partial curve] | Potency [7] 20.9 µM [cytotoxic, partial curve] | Potency [10] 11.7 µM [inhibitor, partial curve, poor fit] | Potency [11] 0.118 µM [inhibitor, single point] | Potency [12] 0.0371 µM [cytotoxic, full curve, poor fit] | Potency [15] 0.0077 µM [inhibitor, full curve] | Potency [18] 0.928 µM [inhibitor, full curve] | Potency [19] 42.8 µM [cytotoxic, partial curve]
inactive: Potency [9] | Potency [14]

C/C(=C\[C@H](C)C(=O)C[C@H](O)CC1CC(=O)NC(=O)C1)[C@@H]1OC(=O)CCCC/C=C/[C@@H](O)C[C@@H]1C
active: Potency [5] 2.35 µM | Potency [7] 2.35 µM | Potency [23] 7.41 µM | Potency [10] 14.8 µM | Potency [11] 4.2 µM | Potency [25] 34.3 µM | Potency [15] 9.65 µM
inconclusive: Potency [20] 14.9 µM [cytotoxic, partial curve] | Potency [1] 1.19 µM [cytotoxic, full curve] | Potency [3] 6.66 µM [cytotoxic, partial curve] | Potency [4] 13.3 µM [cytotoxic, partial curve] | Potency [21] 7.49 µM [cytotoxic, full curve] | Potency [22] 16.7 µM [cytotoxic, single point] | Potency [24] 13.2 µM [cytotoxic, partial curve] | Potency [13] 0.0067 µM [cytotoxic, full curve, poor fit] | Potency [26] 26.3 µM [activator, partial curve, poor fit] | Potency [17] 7.41 µM [cytotoxic, full curve, poor fit] | Potency [19] 10.7 µM [cytotoxic, partial curve]
